The full ranking holds about 4,500 sequences; the median of “median log2 fold change of GCK-ALFA target abundance (FLAG IP / Myc IP barcode read proportion)” is about 0.078, and the lowest 2% start at about -0.6. The list shows a part of the results.
B1: GBRAP_160_4243 (protein)
chain: SERLEEIREDIEEEAEVALEALKEVPKSQWGAVLRAMAGDIVQIVIEDPNMTEETEEEVDELADELVARLLAAKDASPEELERLLREGVERIIEKIEESL
B2: GBRAP_39_5661 (protein)
chain: EEEEENELLFSYYLALAVGEQIKKGISDEEMIEEGKKLLTKIAEEHPEIKEDIEKLLKKVDEGNEEVGLAAYGIALEYEKGTPIEEIKEHIKSLLKYVDK
B3: GBRAP_42_5723 (protein)
chain: MYLVNLEVVVATREELERAIAIWRERNARYRKEKGIIIRLTIAAPEEAAELAAEAEAESAELAKEADKELDWVVVAASADEVGDAIDIAVDLALEERKEE
B4: GBRAP_95_7082 (protein)
chain: EEDLETLEDLAQTAIDLYEAGFEEQAARAAKAAAEELEELGYKVADKELLTKLLTYAADLAPKYFDEEEIERWLKIAEATGAPQSIIDALRAALAAKKAA
B5: GBRAP_14_3870 (protein)
chain: KEEVLKIIEEAIEEMEEEMIELLPEEAERIKEVAEEIKKKAKEVIEEEDDVEKIMEKIKEYSLKLVEEAFADLPPEDRAALLATADNEFAEADLEIEEKL
B6: GBRAP_39_5641 (protein)
chain: SEEEEAEETYEYLEALGAKLLVDEKISLEEALEKTLAYALEKFADNPELQALINELKELAEKGDEMDKLALVGALSLAELGKSDEEIKEHLELLIKYLKS
B7: GBRAP_39_5676 (protein)
chain: EEEEENEDVVSYLEALAAGYLYTTGLSEEEAYERAKKILEAYAKEHPELAPLIKELIEIADEKGEEAKLVLIGIAVKIEQGTPKEEIKKDIELAIAYFKK
B8: GBRAP_84_7000 (protein)
chain: MREEEIEKLVDYLAENSSLELLKKLYVYLLLKNDNKGATRLLSYLLEKDPEAAAEALDKATEAALEEKEEEVKKELLELAKKEGEEIYKKVKKLIELLEE
B9: GBRAP_160_4445 (protein)
chain: SETLERLKKLVEETREEIKKLIEGETHENRVVIVDVGFGELLLEFVEDENVSDELEDEVAKIVDETVEYLKNNPDLTEEEIKKLIDETAEKIKEAIEKHL
B10: GBRAP_160_4442 (protein)
chain: SEKLEKALKRIDEEAEFVKELVDEVSTEQFAKFLDAELGSVILELLEEGYISEETADKIFEIIDEAVATLLANPDMSKEEKKALIDETVEKIKEVIKEDF
B11: GBRAP_48_5832 (protein)
chain: MEFDEELLKKLVEETVEEMKEVYEEAKEEGLSDEEILKMIRALLGDLALELEEAGYTKAADYLLKPENREEVAKKLKELFDEGKYEEAKEYLFNKLKEVE
B12: GBRAP_95_7041 (protein)
chain: EDLELAVESTAEVVEALVELGDREAARKAARRLLELLAEADPDKVRISLSEETARLIVEVARETYSREEAIELLEKLAQAATDERVKRLFLEAAEELRKE
B13: GBRAP_14_3805 (protein)
chain: EEERKKAVEEGVEEIKEIIEEILEDAPEEVREKVLELVEEAKKKIIEEKLNPDEVDELTKETVEKIKEIMEDLPQEVRDKVLAAVSTGFGEIILEIEELE
B14: GBRAP_117_2583 (protein)
chain: MEEKEKVKKELRETIREAGERVRAARSLSPEERERVLEEVRRRIREAVRRALEVLSEEEVEEIVEEELLSFDAEVYFEISLFVEEAIEEIREERRREAEE
B15: GBRAP_186_5381 (protein)
chain: EEELEEELDRIIDELEAQGYRVIVSYLEGLSLEETKEAMRRDAEAVAALSKETGEKWALVVVIRTKAEDVEPLREFAEELNKEYLEKSGVVVKAAIGSSD
B16: GBRAP_26_5479 (protein)
chain: IEELVRELLERLRALLEELLDPETAAAALAEATTIIIEAAERMEENKDNPELLEKIVEEAVEELREELKRLGVSEEKAEKIVELAREGLEEIREKILEES
B17: GBRAP_95_7069 (protein)
chain: SEDQEIADALADSLALYAEAGLAEHAARDLVALADEAKANPDLKVNFPATPEELRAALEKLAEIEPRETAIEVADILAKHAADPEHKKALLETRDRFLAE
B18: GBRAP_95_7024 (protein)
chain: EDDQLLVDSLAEVLDTYVDLGQEEEAERAARRLVAAMKEHGILPLPKDISVESAKIILDVAAEELDLAELEALAEQIIKATKNEEVKKYAAEKIAAKKAA
B19: GBRAP_160_4859 (protein)
chain: SAKLKEALAILEEAKAEALELIDESPASQHAAFAEAVAGDALLELIEKGLINEELEEKLAEIIDKLRARLRAAADASTEEHKALVEEAFEEMKKAVKELS
B20: GBRAP_52_5923 (protein)
chain: SEEEAKARAEAILEAALAGKKEEMEALIKEAVETFSDEEIETMIEELARLVAEKGPEHYDVFAEIMDLLLDAAEEAGRDVELIDYAIARGFGILYDAEQA
B21: GBRAP_184_5030 (protein)
chain: KVIEETIKADNLEELKAKLAELAEKVKDSKADLIVLLEIKNPTKEMVTTAIEMLGEIKKKGYASSVTVGFAEELSEELIDVAIETAKKEGVKVVLPISDE
B22: GBRAP_137_3681 (protein)
chain: MKVTIRIEKDGDLVEITVTIHDKEKGEEVAEKIEDLAVEVGALAISVEKEEDGTVTVTIWVPKEKEEELMKGILEILKDADEIEIIREENGKITKEVIKK
B23: GBRAP_95_7045 (protein)
chain: EDLALAAESDAEVLETAVDLGDKEAAERAAERLLELLLELPPDKVKLDLSVESVKVIIEVAKKKLDKETAIEALEKLAKFQTNEEAKKVIEEAIKELKAE
B24: GBRAP_48_5819 (protein)
chain: PVRDEEELEALVAETVEEMAELYEEAKAAGLSDEEILRMIRAELGDLALELEEAGYTAAADYLLDPENRDALAAELLAFFKAGDLEAAREHLLARLRAAE
B25: GBRAP_125_3039 (protein)
chain: SEEEQLEALARLARLLGLSEEEVEELVALARKHGIKGALIALLMAEGLEDLADLVEKLTDEQVARVLKELLAWLEAHPDITAEEAVAKLRELAKEALAAE
B26: GBRAP_11_2626 (protein)
chain: KKEILEEMAELAERLAELLERLLREGVDNEELRKEARETLERLEELVEKHGDEADKRLVRILRESFEESLEDEENAEAHLREALAAARVLAGNFLLDIEE
B27: GBRAP_78_6727 (protein)
chain: ELEEKIDKAIEHLNRAARLLLTLPRELSEDALGELVDAISDLVEAEEEGGDLEKLEEAKEHLERALALLEAKKDPRLAPAIAEVKAALELLEEAIKLAKE
B28: GBRAP_95_7022 (protein)
chain: EDDQLAAESDAEVLETAVDLGDEETARRAARRLAELVAADPAVRFPADLSPAAVRILIEAALEAFGKEEAAALLARLAAAAADPAVRALARAALAAVRAA
B29: GBRAP_125_3006 (protein)
chain: DLETIIALIRALLRRAGESESNIAEAERLAREYGGKNTLIAVALALGAEALADAAARLTDEQLIAVAREAIAWLEANPDLTPEEALARVLALAEAALAAA

Target: GABARAP, O95166
Sequence (O95166 whole entry, the tested form may be a part): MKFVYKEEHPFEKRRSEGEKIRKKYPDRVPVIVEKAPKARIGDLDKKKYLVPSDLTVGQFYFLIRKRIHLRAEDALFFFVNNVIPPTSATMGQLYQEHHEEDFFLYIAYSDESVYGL
Experiment: median log2 fold change of GCK-ALFA target abundance (FLAG IP / Myc IP barcode read proportion) (log2 ratio); each designed protein is fused to an ALFA-tag nanobody in HEK293 cells to bring the named protein to FLAG-tagged glucokinase (GCK); Myc marks an untargeted standard; higher = target protein stabilised (more abundant)
Details: target protein: 3xFLAG-MCP-GCK-ALFA reporter; HEK293 landing pad (RPLP)
Outline: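 Binders fused to an ALFA nanobody were recombined as a library into HEK293 landing-pad cells, which were induced with 2 μg mL^−1 doxycycline and then transfected to express a FLAG-tagged target and a Myc-tagged standard. After 48 h, circular RNA barcodes recovered by anti-FLAG and anti-Myc immunoprecipitation of lysates were reverse transcribed, amplified and sequenced. Each binder's target abundance is the median log2 ratio of FLAG to Myc barcode read proportions, from barcodes present at ≥10^−7 in both replicates, binders carrying ≥3 barcodes per replicate, a 10^−6 pseudocount and pooled replicates.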

Binder | median log2 fold change
B1 | -0.152
B2 | 0.183
B3 | 0.104
B4 | 0.268
B5 | 0.223
B6 | 0.104
B7 | 0.032
B8 | 0.0601
B9 | -0.393
B10 | 0.0293
B11 | 0.0934
B12 | 0.114
B13 | 0.189
B14 | 0.00718
B15 | 0.0301
B16 | 0.237
B17 | 0.354
B18 | 0.33
B19 | -0.134
B20 | -0.151
B21 | -0.00468
B22 | 0.484
B23 | 0.0702
B24 | -0.0194
B25 | 0.0672
B26 | -0.0112
B27 | 0.0137
B28 | 0.0562
B29 | -0.501

From the supplement of paper PMC12632987
